Among all 420,000 compounds or so, about 64,000 (15%) were called active. This list was built around the results that the source calls inconclusive (neither active nor inactive); the mix of calls is not that of the screen. Calls follow the shape of the dose curve; as a rule, active = well fitted inhibition curve with a large enough effect; inconclusive = small, poorly fitted or top-dose-only effect; inactive = flat fitted curve, though single readings scatter. Potencies of inconclusive entries are left out as doubtful fits.
Test: qHTS for Inhibitors of human tyrosyl-DNA phosphodiesterase 1 (TDP1): qHTS in cells in absence of CPT; also: nearly all actives have a fitted effect of over 55% in size
Details: DT40 Tdp1-/- hTDP1 cells, no CPT, ATP luminescence, 48 h; activity change, negative = growth inhibition: at 46.2 µM (top of the series) unless noted
Outline: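 A cellular qHTS used chicken DT40 cells lacking endogenous Tdp1 but carrying stably transfected human TDP1. Compounds were applied without camptothecin, and cell growth kinetics were judged by ATP-dependent luminescence after ≥48 hr.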
% is scaled to controls: 0 for no effect and ±100 for the full control effect; potency is read from the fitted curve at half-maximal effect; tags tell the direction and shape of the fitted curve.

Compound | Potency | activity change, negative = growth inhibition
O=C(OCC(=O)N1CCN(C(=O)c2ccco2)CC1)c1ccccc1OCc1ccc(Cl)cc1 | active: 23.1 µM | 
COc1ccccc1N1CC(C)(C)C(=O)N(C(=O)c2c(F)cccc2Cl)C1=S | inconclusive [inhibitor, single point] | 
CCCCn1c(=O)[nH]c(=O)c2c1nc(-c1ccccc1OC(F)F)n2C | inactive | 
CCCCn1c(N)c(N(CCC(C)C)C(=O)c2ccc([N+](=O)[O-])o2)c(=O)[nH]c1=O | inactive | 
C=CCn1c(COc2cccc(C)c2)nnc1SCC(=O)c1c(N)n(C)c(=O)n(C)c1=O |  | inconclusive: -23.9% [inhibitor]
Cc1nccn1CC(=O)N/N=C/c1cccc(O)c1 | inactive | 
COc1cccc(OCc2nc3ccccc3[nH]2)c1 | inconclusive [inhibitor, single point] | 
COCC(Cc1ccccc1)NC(=O)Cn1cc(C)c(=O)[nH]c1=O (stereo not drawn) | inactive | 
Cc1cc(Cl)ccc1C(O)c1ncc(-c2cccc3ccccc23)[nH]1 (stereo not drawn) | inconclusive [inhibitor, single point] | 
CC(C)NC(=O)C1(C)CCCN1Cc1csc2ccccc12 (stereo not drawn) | inconclusive [inhibitor, single point] | 
COc1ccc(CNC(=O)c2cc(=O)[nH]c3ccc(S(=O)(=O)N4CCCC4)cc23)c(OC)c1 | inactive | 
COc1ccccc1NC(=O)c1cccs1 | inactive | 
CCN(CC)c1ccc(C(=O)NNC(=O)C2CCN(c3ncnc4sc(C)c(C)c34)CC2)cc1 | inconclusive [inhibitor, single point] | 
CCCC(=O)N(Cc1cc2cc(C)ccc2[nH]c1=O)c1ccccc1OC | inconclusive [inhibitor, single point] | 
CC1=C(C#N)C(Nc2cccc(C)n2)(C(F)(F)F)C(=O)N1 (stereo not drawn) | inactive | 
COc1ccc(-c2ccc3c(c2)[C@@H]2C[C@H](N(C)C(=O)Nc4ccccc4)[C@H]([C@H](C)O)C(=O)N2CC3)cc1 | inconclusive [inhibitor, single point] | 
O=C(OCc1ccccc1)N1CCC2CC1c1cc(-c3cc4ccccc4o3)ccc12 (stereo not drawn) | inconclusive [inhibitor, single point] | 
CCOc1ccc(CNC(=O)CN2C(=O)CSc3ccc(S(=O)(=O)N4CCOCC4)cc32)cc1 | inconclusive [inhibitor, single point] | 
CCOc1ccc(NS(=O)(=O)c2cc(NC(=O)c3cccc(C)c3)ccc2Cl)cc1 | inconclusive [inhibitor, single point] | 
CCOC(=O)CN(Cc1ccccc1)C(C(=O)NC1CCCCC1)c1ccc(OC)cc1 (stereo not drawn) | inconclusive [inhibitor, single point] | 
C=CCN1CCCC1CNC(=O)c1cc(S(N)(=O)=O)cc(OC)c1OC (stereo not drawn) | inactive | 
Cc1c(Cc2ccccc2)c(=O)oc2cc(OCC(=O)NCc3ccccn3)ccc12 | inactive | 

Compound | Potency | activity change, negative = growth inhibition
O=C(Nc1ccccc1)c1cc(C2CCCCN2S(=O)(=O)c2cccs2)on1 (stereo not drawn) | inconclusive [inhibitor, single point] | 
COc1ccccc1CCNC(=O)c1cccc(S(=O)(=O)NCc2ccccc2)c1 | inconclusive [inhibitor, single point] | 
COc1ccc(OC)c(NC(=O)C(=O)/C=C(\O)c2cc(OC)ccc2OC)c1 | inconclusive [inhibitor, single point] | 
CCC(C)N(C(=O)c1csnn1)C(C(=O)NCc1ccc(F)cc1)c1ccccc1 (stereo not drawn) | inconclusive [inhibitor, single point] | 
Cc1nc(NCc2cnn(C)c2C)sc1-c1ccn(CC2COc3ccccc3O2)n1 (stereo not drawn) | inconclusive [inhibitor, partial curve] | 
CCOC(=O)N1CCN(C(=O)C[C@@H]2C[C@@]3(C(=O)OC)CCCCC=C3N(Cc3ccccc3)C2=O)CC1 | inconclusive [inhibitor, single point] | 
CCCCOC(=O)NC1CCS(=O)(=O)C1 (stereo not drawn) | inactive | 
COc1ccccc1CCNC(=O)C(=O)Nc1cc2c3c(c1)C(C)C(=O)N3CCC2 (stereo not drawn) | inconclusive [inhibitor, single point] | 
COc1ccccc1C(=O)NCCC(=O)Nc1ccc(S(=O)(=O)N2CC(C)CC(C)C2)cc1 (stereo not drawn) | inconclusive [inhibitor, single point] | 
Cc1ccc(C(c2nc3ccccc3[nH]2)n2c(-c3ccccc3)nc3ccccc32)cc1 (stereo not drawn) | inconclusive [inhibitor, single point] | 
COc1ccc(CC2S/C(=C(\C#N)C(=O)NCc3ccco3)N(c3ccc(C)cc3)C2=O)cc1 (stereo not drawn) | inconclusive [inhibitor, partial curve] | 
COc1cccc(Nc2sc(C(=O)c3ccc(Cl)cc3)c(N)c2C(=O)NCc2ccc(C)cc2)c1 | active: 4.61 µM | 
COc1ccc(Cl)cc1NC(=O)c1ccc2c(c1)CCN2S(C)(=O)=O | inconclusive [inhibitor, partial curve, poor fit] | 
CCC(CC)COC(=O)C1=C(C)NC(=O)NC1c1ccc([N+](=O)[O-])cc1 (stereo not drawn) | inconclusive [inhibitor, single point] | 
CN(C=O)c1cc([N+](=O)[O-])ccc1OCc1ccccc1 | inconclusive [inhibitor, single point] | 
Cc1cc(NC(=O)CSc2nc(-c3ccccc3C)nc3c2c(=O)n(C)c(=O)n3C)no1 | inactive | 
Cc1ccc(C(=O)c2ccccc2C(=O)OCC(=O)N2C(C)CCCC2C)cc1 (stereo not drawn) | inconclusive [inhibitor, single point] | 
COC(=O)c1cc(Sc2c(Cl)cccc2Cl)ccn1 | active: 2.31 µM | 
Cc1ccc(Nc2nc3ccccc3c3nnc(C)n23)c(C)c1 | active: 8.2 µM | 
CC(C)(C)c1nnc2sc(SC/C(O)=C(\C#N)c3nc4ccccc4[nH]3)nn2c1=O |  | inconclusive: -31% [inhibitor]
CC1=C/C(=N\OS(=O)(=O)c2ccccc2)C(C(C)C)=CC1=O | active: 2.31 µM | 
